This is one part of the list.
T1: UNK ZnF1-3 (human, UniProt Q9C0B0 31-174)
T1 sequence: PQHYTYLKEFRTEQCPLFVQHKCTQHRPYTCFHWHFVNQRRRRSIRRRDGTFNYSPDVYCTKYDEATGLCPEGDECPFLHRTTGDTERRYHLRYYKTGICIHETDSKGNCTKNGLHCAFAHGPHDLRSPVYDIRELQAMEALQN

B1: chr8:82586177:82586178:-_ENSG00000133731_ENST00000256108|hu_mus|FALSE|FALSE (ssRNA)
RNA: GGGAGUUCUACAGUCCGACGAUCCCCUUUCCUGCCGGUGUACAUCUUAUCUUCCACACAGCUGUACACAAUUCCAAACUCCAUCUCUUUAUUCACAAGGAAGCCAAUUGAAACAGCUACAAAGGGAAACCGAUGCACGAAGUUCAACAGAGGAUUGAGCAUCA
B2: 109982352_109983999_3291_CDS_ENSMUSG00000032479_ENSMUST00000165876|mouse|control|control (ssRNA)
RNA: GGGAGUUCUACAGUCCGACGAUCAGCCUCAGGGAUGACUGGCUCCUCCCCAGCGGGGGGGCCUGGACACGGAAGGGCCUCACUGCCACCGCCCUCAGUCUUCACGGCACCUCCUGCAGGCAAGUGGCCCACGUUAUCAAGGGACAACAGAGGAUUGAGCAUCA
B3: 155193506_155193626_1599_ncRNA_ENSMUSG00000029068_ENSMUST00000139066|mouse|control|control (ssRNA)
RNA: GGGAGUUCUACAGUCCGACGAUCUUAUAGGCUAAGGCCAAAGGGUAUACUAGCUUUAUCAACAAUGCAAAAACAAUUCAUGAGAAAACACGUCAUGAGGUUAUACACUGCCCAACAUAUCCAAUGGUACUGUGCAUACCCUAACAACAGAGGAUUGAGCAUCA
B4: 6378548_6378668_99_3pUTR_ENSG00000133398_ENST00000255764|human|control|control (ssRNA)
RNA: GGGAGUUCUACAGUCCGACGAUCCACGAACUUCUCCAGGUGCUCCUCUAGGUGGUCAAACUUCUCCGCCAUCGCCUCGGCCCGUCCCCGACCCACACAGCCUCAACCAGCAGCGCCGCAGGCGUGGCCCUACGCUCCCGCUUCCAACAGAGGAUUGAGCAUCA
B5: 78912229_78912349_2612_CDS_ENSMUSG00000022016_ENSMUST00000123853|mouse|control|control (ssRNA)
RNA: GGGAGUUCUACAGUCCGACGAUCAUUCUGGUUGCAUGGAUUGAGUUCUGAAGGUAGACAGGUACUUCUGAGACAAUCUACUUCCUCUGCACUGCGUUCUAUGGCAAUGUGUUCUUGGGUAGAGCCACCACUUGCUUUACUAGGCAACAGAGGAUUGAGCAUCA
B6: chr15:76911759:76911760:-_ENSMUSG00000033565_ENSMUST00000166610|mus_mus|motif|central (ssRNA)
RNA: GGGAGUUCUACAGUCCGACGAUCGAGGAACAUCCAGACAAACAUUUUCACUACAAGUCUCCUUAAAGGAAUCCAGCUUCGGGUAAUAUUCGCAGCAUAGAAAGCCCAGGCCACAGAGGCCUGCAAAACUGCAAACACCCUUCUCAACAGAGGAUUGAGCAUCA
B7: chr1:171510215:171510216:+_ENSG00000117523_ENST00000367742|hu_hu|motif|central (ssRNA)
RNA: GGGAGUUCUACAGUCCGACGAUCAGGAUAAUCUCGAGUGUGUCCCCUACCACCCCUGCCACGCCCUCCAUAAGAACCUCGGUAGCUUCGACCUCUGGAGUAAUAUUCACCUCGGCCUCGACCUCUGUAUCCUUGAUCUGGAAACAACAGAGGAUUGAGCAUCA
B8: 143143495_143143615_2184_3pUTR_ENSMUSG00000029578_ENSMUST00000036872|mouse|control|control (ssRNA)
RNA: GGGAGUUCUACAGUCCGACGAUCCCAAGUUCACCUGUCAGAAGAGAAGGCACAGAGAGCAGAAACUGCCCCUCUCCCUCUCAAGAUGCCCAUGGAGACUAAGACCCAGAACAACAGUCCCCCCGUGGAGGAAGCUAGUCCCAGCAACAGAGGAUUGAGCAUCA
B9: chr1:225611761:225611762:-_ENSG00000143815_ENST00000272163|hu_mus|hu_hu_hu_mus_True|48_88 (ssRNA)
RNA: GGGAGUUCUACAGUCCGACGAUCCCAGGCCAUCGGCCUCUGACCACUUCACCAUCGACAAACUUCCUACUUGGCAUUUUCUAAAAUUAACCUGCGCGCGCUCCGGCGGGAACUCCAGCCACUCCAGGACAGUCACCAGCAGCCCAACAGAGGAUUGAGCAUCA
B10: chr2:198267338:198267339:-_ENSG00000115524_ENST00000335508|hu_mus|motif|central (ssRNA)
RNA: GGGAGUUCUACAGUCCGACGAUCAAUGAUUUCAACCAAACUUCUGAGAUGUGGCAAGAUAGCACAGCCCAUGAGAAUGGCGGUCUGUUGUACAAUCUUAAUACCAGUGUGCCUCGCUUGCCAAGACUUCUUGCUUUUGCACACCAACAGAGGAUUGAGCAUCA
B11: chr7:140404665:140404666:+_ENSG00000090266_ENST00000247866|hu_hu|hu_hu_hu_mus_False|28_58 (ssRNA)
RNA: GGGAGUUCUACAGUCCGACGAUCUGCUCCUACUCGUCCAGAGAGUUUACAGUGUCAGUCCUCGUCAUCAGGAGGGAUACCUAAUUCUUCAUCUGUCCACUGUGAAGGAUCAGGAUAUGAAAAGUGACCCAGCACAGCAUCCGACAACAGAGGAUUGAGCAUCA
B12: 55528378_55529092_5178_CDS_ENSG00000115355_ENST00000336838|human|control|control (ssRNA)
RNA: GGGAGUUCUACAGUCCGACGAUCACCUUGUGGACUUAUGUCUUCAAAGGAUGUAGUAUCUUUAUUAUUAACCAACUGCUUGGAUCUGAAGCCUGCAGAAGAGUUGACAGUUGAAAAGUUGAUGGCUGUAGUAGAGAAGGCCAUCAACAGAGGAUUGAGCAUCA
B13: 54934717_54934837_312_5pUTR_ENSG00000187735_ENST00000521604|human|control|control (ssRNA)
RNA: GGGAGUUCUACAGUCCGACGAUCCUGGCAAGGGGAAGUGGGCGAAGCUGGAGCGGAAGACACAGCAGGAGCGACCCCCGGCGCGCAGCAACCCCCACCACCGCAGGCCCGGGCCUAGGCCCCCUUCCUUACGAACGAAGCCCGCAACAGAGGAUUGAGCAUCA
B14: 103192919_103193039_1585_3pUTR_ENSG00000089902_ENST00000570597|human|control|control (ssRNA)
RNA: GGGAGUUCUACAGUCCGACGAUCCUGGGAAGUGGCGCCAACAUGGAGGAACGAGCAAAGAAUUAAGGCAGAUGGAGCACAGGACUGGAAGUAUAUGCCUUUUUUGGUAAUAGCUGCUUGUCCAGAGAGAUGUGAUGCAGAUGGCAACAGAGGAUUGAGCAUCA
B15: chr8:104063288:104063289:+_ENSG00000155097_ENST00000518738|hu_mus|FALSE|FALSE (ssRNA)
RNA: GGGAGUUCUACAGUCCGACGAUCUAUGUAAGUAACCAAGUCAACUCCGCUGGCCAGCAAGUUCUCCUGAACUUUAUCUUUGCUGUCCUCCAGCACAUCAGCCAUGUACUGAGCCACUUUCUUGACCACACCUUCUACAAAUGCCAACAGAGGAUUGAGCAUCA
B16: chr16:94664741:94664742:+_ENSMUSG00000040785_ENSMUST00000117648|mus_hu|mus_mus_mus_hu_False|18_98 (ssRNA)
RNA: GGGAGUUCUACAGUCCGACGAUCUGGUACUGAUCUUUGCAUUGGAUAUUCAGGAGAAAGGCUGGCCAAGGGUGUAUAUAUGCUGGUGUACUGGGGCAAACCUGGUAACACGUUUAUGUACGCUGGUGGUGUCUGGGUGAUAUCCAACAGAGGAUUGAGCAUCA
B17: chr6:40197388:40197389:+_ENSMUSG00000057716_ENSMUST00000061740|mus_mus|mus_mus_mus_hu_False|38_58 (ssRNA)
RNA: GGGAGUUCUACAGUCCGACGAUCGAGACACUGGGGUGGAUUUAUUCCACCUCUGUUUGGGUGCUAGCCACUAAGACAGCUAUUUUGGGAUUCAUGGCCUUGAAGAUCAAGAGGGAAAGGAAGAGGAUGGAAAGAGUCAAGAGUCAACAGAGGAUUGAGCAUCA
B18: chr6:150114741:150114742:+_ENSG00000120265_ENST00000367380|hu_hu|motif|central (ssRNA)
RNA: GGGAGUUCUACAGUCCGACGAUCCCCUGAAGACAGAAGUGUUGGAUCGUCCUUCCUGACAUUAUUUACUGAGUCAUCGGCGGGCUCUUUAAUGUGAUCAAUUCCUAUGACUUUUCCAGUACAUCCAACCAUACGUGCAAAACACAACAGAGGAUUGAGCAUCA
B19: 108516817_108516937_3276_CDS_ENSMUSG00000032846_ENSMUST00000105097|mouse|control|control (ssRNA)
RNA: GGGAGUUCUACAGUCCGACGAUCGGUGGUCAGGGUGCACCUGCGCAAAAUGUCCGACAGUACCGUUGCGCAUUUGACGCUCUUAACCACCAGAGGUAUUAUAGCUGCUAGCUCAUUCUUACCGAGGGAGUGACUAAGCGCACACAACAGAGGAUUGAGCAUCA
B20: chr6:136600977:136600978:-_ENSG00000029363_ENST00000527536|hu_hu|motif|central (ssRNA)
RNA: GGGAGUUCUACAGUCCGACGAUCCGAGACCUAGAACUGUAUCGCUUCUUUCUAGAAUGAGAUCUUGAUCUUGAUCGAGAACGGGACUGUGAUCUAGACUUUGACCUUGAAGAAUGUGAUCUAGAAUUGGAGCGACCCAUUUCUCAACAGAGGAUUGAGCAUCA
B21: chr3:176740097:176740098:-_ENSG00000177565_ENST00000430069|hu_mus|hu_hu_hu_mus_True|1_8 (ssRNA)
RNA: GGGAGUUCUACAGUCCGACGAUCUGUUUUGUAUACCACAAAAGGAGGCACUUUCAGUAUCUGCAAAAGGUGUUUAGUCCUAAAACAUACUCACCUAGAGGAUAACUCAGGAAAACAAUCUGUUACACUAGUAUCUAUUAGGAACAACAGAGGAUUGAGCAUCA
B22: chr7:108213676:108213677:+_ENSG00000128590_ENST00000249356|hu_hu|motif|central (ssRNA)
RNA: GGGAGUUCUACAGUCCGACGAUCUCCAUGAAAUCUAUUUUCAGUCUGUACUGUAUGCUGAUUGGUAGAGUCAAAACCACGGAAAGAAAACAUUUUCUCCAUAUCUUCAAACAUGUCAUCAAAUAAUCCACCUCCAAAAGAAAACAACAGAGGAUUGAGCAUCA

These binders were tested against T1, UNK ZnF1-3 (assay: nsRBNS (natural sequence RNA bind-n-seq); RBNS binding buffer (assumed for nsRBNS): 25 mM Tris pH 7.5, 150 mM KCl, 3 mM MgCl2, 0.01% Triton X-100, 500 ug/ml BSA, 20 U/ml SUPERase-In, 4 C; UNK is unkempt and MSI1 is Musashi-1; names of the RNAs are library labels; protein concentration not given here; high values mean tight binding).

Binder	binding signal
B1	1.06 enrichment R
B2	0.759 enrichment R
B3	0.558 enrichment R
B4	1.03 enrichment R
B5	1.05 enrichment R
B6	1.04 enrichment R
B7	0.73 enrichment R
B8	0.941 enrichment R
B9	1.49 enrichment R
B10	0.597 enrichment R
B11	1.11 enrichment R
B12	1.69 enrichment R
B13	0.888 enrichment R
B14	1.76 enrichment R
B15	0.846 enrichment R
B16	0.842 enrichment R
B17	1.37 enrichment R
B18	0.864 enrichment R
B19	0.716 enrichment R
B20	0.372 enrichment R
B21	0.76 enrichment R
B22	1.23 enrichment R

Source: paper PMC12136788
